Where a chain is given by its changes, count along the chain named. In names and notes the source's numbering stands. One block for each binder: values may come before it.
Molecular target: cell surface TrkA on the human erythroleukemic cell line TF-1 (human), P04629
Test: cell-based or functional assay

Sequence of cell surface TrkA on the human erythroleukemic cell line TF-1 (human), P04629 (P04629 33-796): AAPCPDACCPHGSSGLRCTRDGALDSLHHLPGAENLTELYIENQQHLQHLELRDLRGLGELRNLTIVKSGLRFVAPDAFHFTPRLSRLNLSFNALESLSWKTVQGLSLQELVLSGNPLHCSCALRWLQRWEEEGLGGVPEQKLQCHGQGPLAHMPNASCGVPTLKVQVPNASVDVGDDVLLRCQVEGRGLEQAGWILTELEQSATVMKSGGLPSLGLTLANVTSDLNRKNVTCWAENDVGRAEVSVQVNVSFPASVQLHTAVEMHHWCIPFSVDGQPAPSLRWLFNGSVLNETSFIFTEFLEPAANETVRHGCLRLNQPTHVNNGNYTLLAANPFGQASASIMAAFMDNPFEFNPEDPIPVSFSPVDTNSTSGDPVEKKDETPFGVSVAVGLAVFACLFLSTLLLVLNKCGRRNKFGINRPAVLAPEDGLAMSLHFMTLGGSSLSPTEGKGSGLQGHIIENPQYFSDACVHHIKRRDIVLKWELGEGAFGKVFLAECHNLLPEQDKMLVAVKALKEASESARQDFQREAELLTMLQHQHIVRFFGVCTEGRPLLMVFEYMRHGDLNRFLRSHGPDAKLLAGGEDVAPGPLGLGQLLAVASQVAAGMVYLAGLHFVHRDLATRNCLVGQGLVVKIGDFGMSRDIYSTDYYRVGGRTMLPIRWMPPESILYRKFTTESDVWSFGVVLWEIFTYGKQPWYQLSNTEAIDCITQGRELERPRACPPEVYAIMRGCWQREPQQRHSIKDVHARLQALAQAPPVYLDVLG

TF-1 cell proliferation assay IC50 (NGF-induced): 0.075 µg/mL
TF-1 cell proliferation assay, potency relative to BXhVH5VL1: 10 fold
TF-1 cell proliferation assay, potency relative to MNAC13: 3 fold
B1: GBR VH5(V37A)VL1 (antibody, human IgG1, kappa)
heavy: EVKLLESGGGLVQPGGSLRLSCAASGFTFSTYTMSWARQTPGKRLEWVAYISKGGGSTYYPDTVKGRFTISRDNSKNTLYLQMNSLRAEDTAVYYCARGAMYGNDFFYPMDYWGQGTTVTVSS[human IgG1 constant region not listed]
light: EIVLTQSPATLSLSPGERATLSCSASSSVSYMHWYQQKPGQAPRLLIYTTSNLASGIPARFSGSGSGTDFTLTISSLEPEDFAVYYCHQWSSYPWTFGQGTKLEIKRTVAAPSVFIFPPSDEQLKSGTASVVCLLNNFYPREAKVQWKVDNALQSGNSQESVTEQDSKDSTYSLSSTLTLSKADYEKHKVYACEVTHQGLSSPVTKSFNRGEC

TF-1 cell proliferation assay IC50 (NGF-induced): 0.15 µg/mL
B5: GBR VH5(K3Q, V37A)VL1 IGHG4 S228P (antibody, human IgG4 S228P, kappa)
heavy: EVQLLESGGGLVQPGGSLRLSCAASGFTFSTYTMSWARQTPGKRLEWVAYISKGGGSTYYPDTVKGRFTISRDNSKNTLYLQMNSLRAEDTAVYYCARGAMYGNDFFYPMDYWGQGTTVTVSSASTKGPSVFPLAPCSRSTSESTAALGCLVKDYFPEPVTVSWNSGALTSGVHTFPAVLQSSGLYSLSSVVTVPSSSLGTKTYTCNVDHKPSNTKVDKRV[human IgG4 Fc with S228P (EU numbers) not listed]
light: B1 light

TF-1 cell proliferation assay IC50 (NGF-induced): 0.22 µg/mL
B7: GBR VH5(V37A)VL3 (antibody, human IgG1, kappa)
heavy: B1 heavy
light: B1 light with E1Q, A42S, A59S, D69F, F70Y, Q99G

Further lines, the binder ahead of its results:

B2: BXhVH5VL1 (antibody, human IgG1, kappa)
heavy: B1 heavy with A37V
light: B1 light
TF-1 cell proliferation assay IC50 (NGF-induced): 0.73 µg/mL

B3: GBR VH3(V37A)VL1 (antibody, human IgG1, kappa)
heavy: B1 heavy with K3Q, R98K
light: B1 light
TF-1 cell proliferation assay IC50 (NGF-induced): 0.15 µg/mL

B4: GBR VH5(K3Q, V37A)VL1 (antibody, human IgG1, kappa)
heavy: B1 heavy with K3Q
light: B1 light
TF-1 cell proliferation assay IC50 (NGF-induced): 0.15 µg/mL

B6: GBR VH3(V37A)VL3 (antibody, human IgG1, kappa)
heavy: B1 heavy with K3Q, R98K
light: B1 light with E1Q, A42S, A59S, D69F, F70Y, Q99G
TF-1 cell proliferation assay IC50 (NGF-induced): 0.29 µg/mL
